# Experimental data: patent US10358436B2, “Kinase inhibitors and method of treating cancer” (University Health Network, priority 2010, dated 2019)
# Structures can show the parent of a compound that is named as a salt. Where two headings read alike, the source gives them in different places.
# Key:
# Assay in all cases: cells
# [1] = tested on: MCF-7 luminal breast cancer cell line; conditions: Homo sapiens, MCF7, 120 h
# [2] = tested on: MDA-MB-468 basal breast cancer cell line; conditions: Homo sapiens, MDA-MB-468, 120 h
# [3] = tested on: HCC1954 basal breast cancer cell line; conditions: Homo sapiens, HCC1954, 120 h
# [4] = tested on: A549 lung cancer cell line; conditions: Homo sapiens, A549, 120 h, read-out: Cell Line GI50 Range A-549
# [5] = tested on: SW620 colon cancer cell line; conditions: Homo sapiens, SW-620, 120 h, read-out: Cell Line GI50 Range SW-620
# [6] = read-out: Cell Line GI50 Range MCF-7
# [7] = read-out: Cell Line GI50 Range MDA-MB-468
# [8] = read-out: Cell Line GI50 Range HCC-1954
# [9] = read-out: Cell Line GI50 Range MCF-7, MCF-7 luminal breast cancer cell line, SRB assay, 5 days
# [10] = read-out: Cell Line GI50 Range HCC-1954, HCC1954 basal breast cancer cell line, SRB assay, 5 days
Structure (SMILES),"GI50 [1, 6] [nM]","GI50 [2, 7] [nM]","GI50 [3, 8] [nM]",GI50 [4] [nM],"GI50 ([2]; read-out: Cell Line GI50 Range MDA-MB-468, MDA-MB-468 basal breast cancer cell line, SRB assay, 5 days) [nM]",GI50 [5] [nM],"GI50 [1, 9] [nM]","GI50 [3, 10] [nM]"
"O=C1Nc2ccccc2[C@]12C[C@H]2c1ccc2cn[nH]c2c1 (racemic) [Example A2, (1R*,2S*)-2-(1H-indazol-6-yl)spiro[cyclopropane-1,3′-indolin]-2′-one]",> 10000,> 10000,> 10000,> 10000,,,,
"COc1ccc2c(c1)[C@]1(C[C@@H]1c1ccc3c(-c4ccc(N5CCN(C)CC5)nc4)n[nH]c3c1)C(=O)N2 (relative stereo) [Example A17, (1R*,2R*)-5′-Methoxy-2-(3-(6-(4-methylpiperazin-1-yl)pyridin-3-yl)-1H-indazol-6-yl)spiro[cyclopropane-1,3′-indolin]-2′-one]",1000 to 10000,,,1000 to 10000,1000 to 10000,1000 to 10000,,
"O=C1Nc2ccccc2[C@]12C[C@H]2c1ccc2c(/C=C/c3cccnc3)n[nH]c2c1 (relative stereo) [Example A28, (1R*,2S*)-2-(3-((E)-2-(pyridin-3-yl)vinyl)-1H-indazol-6-yl)spiro-[cyclopropane-1,3′-indolin]-2′-one]",,,,1000 to 10000,,,1000 to 10000,1000 to 10000
"COc1ccc2c(c1)[C@]1(C[C@H]1c1ccc3c(-c4ccnc(N5CCN(C)CC5)c4)n[nH]c3c1)C(=O)N2 (relative stereo) [Example A37, (1R*,2S*)-5′-Methoxy-2-(3-(2-(4-methylpiperazin-1-yl)pyridin-4-yl)-1H-indazol-6-yl)spiro[cyclopropane-1,3′-indolin]-2′-one]",> 10000,100 to 1000,> 10000,,,< 100,,
"O=C1Nc2ccccc2[C@]12C[C@H]2c1ccc2c(/C=C/c3ccc(N4CCNCC4)cc3)n[nH]c2c1 (relative stereo) [Example A91, (1R*,2S*)-(E)-2-(3-(4-(piperazin-1-yl)styryl)-1H-indazol-6-yl)spiro[cyclopropane-1,3′-indolin]-2′-one 2,2,2-trifluoroacetate]",< 100,,1000 to 10000,< 100,,< 100,,
"COc1ccc2c(c1)[C@]1(C[C@H]1c1ccc3c(-c4ccc(C(=O)N5CCN(C)CC5)cc4)n[nH]c3c1)C(=O)N2 (relative stereo) [Example A148, (1R*,2S*)-5′-methoxy-2-(3-(4-(4-methylpiperazine-1-carbonyl)phenyl)-1H-indazol-6-yl)spiro[cyclopropane-1,3′-indolin]-2′-one 2,2,2-trifluoroacetate]",,100 to 1000,> 10000,,,,,
"Cc1ccc(/C=C/c2n[nH]c3cc([C@@H]4C[C@@]45C(=O)Nc4ccccc45)ccc23)c(C)n1 (relative stereo) [Example A158, (1R*,2S*)-2-(3-((E)-2-(2,6-dimethylpyridin-3-yl)vinyl)-1H-indazol-6-yl)spiro[cyclopropane-1,3′-indolin]-2′-one]",,,,100 to 1000,,100 to 1000,1000 to 10000,> 10000
"NC(=O)CN1C(=O)[C@@]2(C[C@H]2c2ccc3c(/C=C/c4ccc(CN5CCCCC5)cc4)n[nH]c3c2)c2ccccc21 (relative stereo) [Example A165, 2-((1R*,2S*)-(E)-2′-oxo-2-(3-(4-(piperidin-1-ylmethyl)styryl)-1H-indazol-6-yl)spiro[cyclopropane-1,3′-indoline]-1′-yl)acetamide 2,2,2-trifluoroacetate]",1000 to 10000,< 100,1000 to 10000,< 100,,,,
"COc1cc2c(cc1OC)[C@]1(C[C@H]1c1ccc3c(/C=C/c4ccc(CN(C)C)cc4)n[nH]c3c1)C(=O)N2 (relative stereo) [Example A168, (1R*,2S*)-(E)-2-(3-(4-((dimethylamino)methyl)styryl)-1H-indazol-6-yl)-5′,6′-dimethoxyspiro[cyclopropane-1,3′-indolin]-2′-one 2,2,2-trifluoroacetate]",,100 to 1000,,,,100 to 1000,100 to 1000,100 to 1000
"Cc1ccc2c(c1)[C@]1(C[C@H]1c1ccc3c(/C=C/c4ccc(CN(C)C)cc4)n[nH]c3c1)C(=O)N2 (relative stereo) [Example A169, (1R*,2S*)-(E)-2-(3-(4-((dimethylamino)methyl)styryl)-1H-indazol-6-yl)-5′-methylspiro[cyclopropane-1,3′-indolin]-2′-one 2,2,2-trifluoroacetate]",< 100,,1000 to 10000,< 100,,,,
"COc1ccc2c(c1)[C@]1(C[C@H]1c1ccc3c(/C=C/c4ccc(C(=O)N5CCN(C)CC5)cc4)n[nH]c3c1)C(=O)N2 (relative stereo) [Example A179, (1R*,2S*)-(E)-5′-methoxy-2-(3-(4-(4-methylpiperazine-1-carbonyl)styryl)-1H-indazol-6-yl)spiro[cyclopropane-1,3′-indolin]-2′-one 2,2,2-trifluoroacetate]",,< 100,,,,< 100,< 100,1000 to 10000
"COc1ccc2c(c1)[C@]1(C[C@H]1c1ccc3c(/C=C/c4cc(F)c(CN(C)C)c(F)c4)n[nH]c3c1)C(=O)N2 (relative stereo) [Example A215, (1R*,2S*)-(E)-2-(3-(4-((dimethylamino)methyl)-3,5-difluorostyryl)-1H-indazol-6-yl)-5′-methoxyspiro[cyclopropane-1,3′-indolin]-2′-one 2,2,2-trifluoro acetate]",< 100,,< 100,,,,,
"COc1ccc2c(c1)[C@]1(C[C@H]1c1ccc3c(/C=C/c4ccc5c(c4)CCN(C)C5)n[nH]c3c1)C(=O)N2 [Example A75, (1R,2S)-5′-methoxy-2-(3-((E)-2-(2-methyl-1,2,3,4-tetrahydroisoquinolin-6-yl)vinyl)-1H-indazol-6-yl)spiro[cyclopropane-1,3′-indolin]-2′-one 2,2,2-trifluoroacetate salt]",100 to 1000,< 100,> 10000,< 100,,,,
"COc1ccc2c(c1)[C@]1(C[C@H]1c1ccc3c(/C=C/c4ccc(OC5CCN(C)CC5)cc4)n[nH]c3c1)C(=O)N2 [Example A79, (1R,2S)-(E)-5′-methoxy-2-(3-(4-(1-methylpiperidin-4-yloxy)styryl)-1H-indazol-6-yl)spiro[cyclopropane-1,3′-indolin]-2′-one 2,2,2-trifluoroacetate salt]",100 to 1000,,1000 to 10000,< 100,,< 100,,
"CN1C(=O)[C@@]2(C[C@H]2c2ccc3c(/C=C/c4ccc(CN5CCCC5)cc4)n[nH]c3c2)c2ccccc21 [Example A115, (1R,2S)-(E)-1′-methyl-2-(3-(4-(pyrrolidin-1-ylmethyl)styryl)-1H-indazol-6-yl)spiro[cyclopropane-1,3′-indolin]-2′-one 2,2,2-trifluoroacetate]",1000 to 10000,< 100,100 to 1000,,,< 100,,
"O=C1Nc2ccccc2[C@]12C[C@H]2c1ccc2c(/C=C/c3cc(F)c(CN4CCOCC4)c(F)c3)n[nH]c2c1 [Example A116, (1R,2S)-(E)-2-(3-(3,5-difluoro-4-(morpholinomethyl)styryl)-1H-indazol-6-yl)spiro[cyclopropane-1,3′-indolin]-2′-one 2,2,2-trifluoroacetate]",< 100,< 100,100 to 1000,,,100 to 1000,,
"COc1ccc2c(c1)[C@]1(C[C@H]1c1ccc3c(-c4ccc(N5CC[C@@H](N(C)C)C5)cc4)n[nH]c3c1)C(=O)N2 [Example A127, (1R,2S)-2-(3-(4-((R)-3-(dimethylamino)pyrrolidin-1-yl)phenyl)-1H-indazol-6-yl)-5′-methoxyspiro[cyclopropane-1,3′-indolin]-2′-one 2,2,2-trifluoroacetate]",,< 100,,,,< 100,1000 to 10000,1000 to 10000
"CCN1CCN(c2ccc(/C=C/c3n[nH]c4cc([C@@H]5C[C@@]56C(=O)Nc5ccc(OC)cc56)ccc34)cc2)CC1 [Example A187, (1R,2S)-(E)-2-(3-(4-(4-ethylpiperazin-1-yl)styryl)-1H-indazol-6-yl)-5′-methoxyspiro[cyclopropane-1,3′-indolin]-2′-one 2,2,2-trifluoroacetate]",< 100,< 100,100 to 1000,< 100,,,,
"C[C@@H]1CCC[C@H](C)N1Cc1ccc(/C=C/c2n[nH]c3cc([C@@H]4C[C@@]45C(=O)Nc4ccccc45)ccc23)cc1 [Example A201, (1R,2S)-(E)-2-(3-(4-((cis-2,6-dimethylpiperidin-1-yl)methyl)styryl)-1H-indazol-6-yl)spiro[cyclopropane-1,3′-indolin]-2′-one 2,2,2-trifluoroacetate]",100 to 1000,< 100,100 to 1000,< 100,,,,
"O=C1Nc2ccccc2[C@]12C[C@H]2c1ccc2c(/C=C/c3ccc(CCN4CCOCC4)cc3)n[nH]c2c1 [Example A205, (1R,2S)-(E)-2-(3-(4-(2-morpholinoethyl)styryl)-1H-indazol-6-yl)spiro[cyclopropane-1,3′-indolin]-2′-one 2,2,2-trifluoroacetate]",,,,< 100,,< 100,,
"CCN(CC)Cc1ccc(/C=C/c2n[nH]c3cc([C@@H]4C[C@@]45C(=O)Nc4ccc(OC)cc45)ccc23)cc1 [Example A206, (1R,2S)-(E)-2-(3-(4-((diethylamino)methyl)styryl)-1H-indazol-6-yl)-5′-methoxy spiro[cyclopropane-1,3′-indolin]-2′-one 2,2,2-trifluoroacetate]",< 100,< 100,1000 to 10000,< 100,,,,
